Laboratory results as given in the supplement of paper PMC8728848.
Some of the results follow.

Columns and labels:
Experiment in all cases: glycan array binding signal (z-score within array); higher = stronger binding
Details in all cases: glycan notation: IUPAC condensed, linker removed
[1] = target: Fuc(a1-2)[GalNAc(a1-3)]Gal(b1-3)GlcNAc(b1-3)GalNAc
Summary of the method: (§1)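 The Consortium for Functional Glycomics database supplied 3228 glycan arrays, of which those lacking an available protein sequence were dropped. The binding signal, a within-array Z-score, was averaged across arrays of the same protein sequence and across linkers. Negative scores can be read as non-binding.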

[2] = target: Fuc(a1-2)[GalNAc(a1-3)]Gal(b1-3)GlcNAc(b1-6)GalNAc
Summary of the method: as §1

[3] = target: Fuc(a1-2)[GalNAc(a1-3)]Gal(b1-4)Glc
Summary of the method: as §1

[4] = target: Fuc(a1-2)[GalNAc(a1-3)]Gal(b1-4)GlcNAc
Summary of the method: as §1

[5] = target: Fuc(a1-2)[GalNAc(a1-3)]Gal(b1-4)GlcNAc(b1-2)Man
Summary of the method: as §1

[6] = target: Fuc(a1-2)[GalNAc(a1-3)]Gal(b1-4)GlcNAc(b1-2)Man(a1-3)[Fuc(a1-2)[GalNAc(a1-3)]Gal(b1-4)GlcNAc(b1-2)Man(a1-6)]Man(b1-4)GlcNAc(b1-4)GlcNAc
Summary of the method: as §1

[7] = target: Fuc(a1-2)[GalNAc(a1-3)]Gal(b1-4)GlcNAc(b1-2)Man(a1-3)[Fuc(a1-2)[GalNAc(a1-3)]Gal(b1-4)GlcNAc(b1-2)Man(a1-6)]Man(b1-4)GlcNAc(b1-4)[Fuc(a1-6)]GlcNAc
Summary of the method: as §1

[8] = target: Fuc(a1-2)[GalNAc(a1-3)]Gal(b1-4)GlcNAc(b1-3)Gal(b1-4)GlcNAc
Summary of the method: as §1

[9] = target: Fuc(a1-2)[GalNAc(a1-3)]Gal(b1-4)GlcNAc(b1-3)Gal(b1-4)GlcNAc(b1-3)Gal(b1-4)GlcNAc
Summary of the method: as §1

[10] = target: Fuc(a1-2)[GalNAc(a1-3)]Gal(b1-4)GlcNAc(b1-3)GalNAc
Summary of the method: as §1

[11] = target: Fuc(a1-2)[GalNAc(a1-3)]Gal(b1-4)GlcNAc(b1-3)[Fuc(a1-2)[GalNAc(a1-3)]Gal(b1-4)GlcNAc(b1-6)]GalNAc
Summary of the method: as §1

[12] = target: Fuc(a1-2)[GalNAc(a1-3)]Gal(b1-4)GlcNAc(b1-6)GalNAc
Summary of the method: as §1

[13] = target: Fuc(a1-2)[GalNAc(a1-3)]Gal(b1-4)[Fuc(a1-3)]GlcNAc
Summary of the method: as §1

[14] = target: Fuc(a1-2)[GalNAc(a1-3)]Gal(b1-4)[Fuc(a1-3)]GlcNAc(b1-3)GalNAc
Summary of the method: as §1

[15] = target: Fuc(a1-2)[GalNAc(a1-4)]Gal(b1-4)GlcNAc
Summary of the method: as §1

[16] = target: Fuc(a1-2)[GalNAc(b1-3)]Gal
Summary of the method: as §1

Fuc(a1-3)GlcNAc = target: Fuc(a1-3)GlcNAc
Summary of the method: as §1

[17] = target: Fuc(a1-3)[Gal(b1-4)]Glc6S
Summary of the method: as §1

[18] = target: Fuc(a1-3)[Gal(b1-4)]GlcNAc
Summary of the method: as §1

[19] = target: Fuc(a1-3)[Gal(b1-4)]GlcNAc(b1-2)Man
Summary of the method: as §1

[20] = target: Fuc(a1-3)[Gal(b1-4)]GlcNAc(b1-2)Man(a1-3)[Fuc(a1-3)[Gal(b1-4)]GlcNAc(b1-2)Man(a1-6)]Man(b1-4)GlcNAc(b1-4)GlcNAc
Summary of the method: as §1

[21] = target: Fuc(a1-3)[Gal(b1-4)]GlcNAc(b1-2)Man(a1-3)[Fuc(a1-3)[Gal(b1-4)]GlcNAc(b1-2)Man(a1-6)]Man(b1-4)GlcNAc(b1-4)[Fuc(a1-6)]GlcNAc
Summary of the method: as §1

[22] = target: Fuc(a1-3)[Gal(b1-4)]GlcNAc(b1-3)Gal(b1-3)[Fuc(a1-4)]GlcNAc
Summary of the method: as §1

[23] = target: Fuc(a1-3)[Gal(b1-4)]GlcNAc(b1-3)Gal(b1-4)[Fuc(a1-3)]GlcNAc
Summary of the method: as §1

[24] = target: Fuc(a1-3)[Gal(b1-4)]GlcNAc(b1-3)Gal(b1-4)[Fuc(a1-3)]GlcNAc(b1-3)Gal(b1-4)[Fuc(a1-3)]GlcNAc
Summary of the method: as §1

[25] = target: Fuc(a1-3)[Gal(b1-4)]GlcNAc(b1-3)GalNAc
Summary of the method: as §1

[26] = target: Fuc(a1-3)[Gal(b1-4)]GlcNAc(b1-6)GalNAc
Summary of the method: as §1

[27] = target: Fuc(a1-3)[Gal(b1-4)]GlcNAc(b1-6)[Gal(b1-3)GlcNAc(b1-3)]Gal(b1-4)Glc
Summary of the method: as §1

[28] = target: Fuc(a1-3)[Gal(b1-4)]GlcNAc6S
Summary of the method: as §1

[29] = target: Fuc(a1-3)[Gal3S(b1-4)]Glc
Summary of the method: as §1

[30] = target: Fuc(a1-3)[Gal3S(b1-4)]GlcNAc
Summary of the method: as §1

[31] = target: Fuc(a1-3)[Gal3S(b1-4)]GlcNAc6S
Summary of the method: as §1

[32] = target: Fuc(a1-3)[GalNAc(b1-4)]GlcNAc
Summary of the method: as §1

[33] = target: Fuc(a1-3)[GalNAc(b1-4)]GlcNAc6S
Summary of the method: as §1

Fuc(a1-4)GlcNAc = target: Fuc(a1-4)GlcNAc
Summary of the method: as §1

Fuc(b1-3)GlcNAc = target: Fuc(b1-3)GlcNAc
Summary of the method: as §1

Gal(a1-2)Gal = target: Gal(a1-2)Gal
Summary of the method: as §1

Gal(a1-3)Gal = target: Gal(a1-3)Gal
Summary of the method: as §1

Gal(a1-3)Gal(b1-3)GlcNAc = target: Gal(a1-3)Gal(b1-3)GlcNAc
Summary of the method: as §1

[34] = target: Gal(a1-3)Gal(b1-3)GlcNAc(b1-2)Man
Summary of the method: as §1

[35] = target: Gal(a1-3)Gal(b1-3)GlcNAc(b1-2)Man(a1-3)[Gal(a1-3)Gal(b1-3)GlcNAc(b1-2)Man(a1-6)]Man(b1-4)GlcNAc(b1-4)GlcNAc
Summary of the method: as §1

[36] = target: Gal(a1-3)Gal(b1-3)GlcNAc(b1-3)GalNAc
Summary of the method: as §1

[37] = target: Gal(a1-3)Gal(b1-3)GlcNAc(b1-6)GalNAc
Summary of the method: as §1

[38] = target: Gal(a1-3)Gal(b1-3)[Fuc(a1-4)]GlcNAc(b1-2)Man(a1-3)[Gal(a1-3)Gal(b1-3)[Fuc(a1-4)]GlcNAc(b1-2)Man(a1-6)]Man(b1-4)GlcNAc(b1-4)GlcNAc
Summary of the method: as §1

Gal(a1-3)Gal(b1-4)Glc = target: Gal(a1-3)Gal(b1-4)Glc
Summary of the method: as §1

B1: HA-11100 (Pseudomonas aeruginosa), Q02G51_PSEAB (protein)
chain: QFNPNEIKISQQGKTTLIDQSTQRAIINWKGFDVSADEAVRFNQPGVTSSTLNRVTAGQESVIAGRISAPGQVIIYNSNGVVFSGSAKVDVGSLITTTANISDEHFRQGKLIFDQPGNPDARIVNDGSISVAEKGLAAFVAPSVANNGVINARLGTVAMAAGNAATIDLYG
glycan array binding signal (z-score) [1]: 0.183
glycan array binding signal (z-score) [2]: -0.673
glycan array binding signal (z-score) [3]: -0.174
glycan array binding signal (z-score) [4]: -0.44
glycan array binding signal (z-score) [5]: -0.343
glycan array binding signal (z-score) [6]: 2.99
glycan array binding signal (z-score) [7]: -0.102
glycan array binding signal (z-score) [8]: -0.411
glycan array binding signal (z-score) [9]: 0.727
glycan array binding signal (z-score) [10]: -0.36
glycan array binding signal (z-score) [11]: -0.169
glycan array binding signal (z-score) [12]: 0.003
glycan array binding signal (z-score) [13]: -0.26
glycan array binding signal (z-score) [14]: 2.04
glycan array binding signal (z-score) [15]: 0.006
glycan array binding signal (z-score) [16]: -0.384
glycan array binding signal (z-score) (Fuc(a1-3)GlcNAc): -0.436
glycan array binding signal (z-score) [17]: -0.236
glycan array binding signal (z-score) [18]: -0.08
glycan array binding signal (z-score) [19]: -0.372
glycan array binding signal (z-score) [20]: 0.054
glycan array binding signal (z-score) [21]: 3.33
glycan array binding signal (z-score) [22]: -0.148
glycan array binding signal (z-score) [23]: -0.502
glycan array binding signal (z-score) [24]: -0.007
glycan array binding signal (z-score) [25]: -0.547
glycan array binding signal (z-score) [26]: 0.195
glycan array binding signal (z-score) [27]: -0.327
glycan array binding signal (z-score) [28]: -0.297
glycan array binding signal (z-score) [29]: -0.268
glycan array binding signal (z-score) [30]: -0.404
glycan array binding signal (z-score) [31]: -0.228
glycan array binding signal (z-score) [32]: -0.403
glycan array binding signal (z-score) [33]: -0.304
glycan array binding signal (z-score) (Fuc(a1-4)GlcNAc): 0.022
glycan array binding signal (z-score) (Fuc(b1-3)GlcNAc): -0.404
glycan array binding signal (z-score) (Gal(a1-2)Gal): -0.035
glycan array binding signal (z-score) (Gal(a1-3)Gal): -0.507
glycan array binding signal (z-score) (Gal(a1-3)Gal(b1-3)GlcNAc): -0.446
glycan array binding signal (z-score) [34]: -0.356
glycan array binding signal (z-score) [35]: 2.34
glycan array binding signal (z-score) [36]: 0.037
glycan array binding signal (z-score) [37]: -0.463
glycan array binding signal (z-score) [38]: 1.87
glycan array binding signal (z-score) (Gal(a1-3)Gal(b1-4)Glc): 0.332
